Data: PubChem BioAssay AID1508642 (National Center for Advancing Translational Sciences (NCATS), 2021)
Among all 43,000 compounds or so, about 200 (0.47%) were called active. Another 12% or so got no clear call; they are omitted. Calls come from the whole dose curve; as a rule, active = well fitted cell-killing curve with a large enough effect; inconclusive = small, poorly fitted or top-dose-only effect, or effect the other way; inactive = flat fitted curve, though single readings scatter. Some of the results follow.

Assay: Cell viability qHTS assay in S16 Pmp22-F2sN cells; note: nearly all actives have a fitted effect of over 65% in size
Conditions: S16 Pmp22-F2sN Schwann cells viability, CellTiter-Glo, 24 h; series mostly up to 57.5 µM; activity change, negative = cytotoxicity: at the top concentration
Procedure, shortened: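 Used to flag compounds lowering reporter output through toxicity, this quantitative HTS measures ATP-based CellTiter-Glo luminescence in S16 Pmp22-F2sN Schwann cells after 24 h compound exposure at 37C.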
% is set by controls: 0 for no effect and ±100 for the full control effect.

SMILES	activity change, negative = cytotoxicity
O=c1c2cc3c(cc2nc2sc(Nc4cccc([N+](=O)[O-])c4)nn12)OCO3	inactive: 4.75%
Cc1ccc(C)c(S(=O)(=O)c2nnn3c2nc(N2CCN(C)CC2)c2sccc23)c1	inactive: -16.4%
CCOC(=O)c1c(NC(=O)c2ccc(OCC)c(Br)c2)sc2c1CCCC2	inactive: -0.203%
Cc1cc2oc(=O)c(CC(=O)NCCc3ccccc3F)c(C)c2c2occ(C(C)(C)C)c12	inactive: -2.41%
CC(=O)Nc1cc(C(=O)NCc2ccc(F)cc2)ccc1Sc1ccc(F)cc1	inactive: 7.71%
COc1ccccc1C(=O)Nc1ccc2nc(SCC(=O)N3CCCc4ccccc43)sc2c1	inactive: -14.7%
COc1ccc(OC)c(NC(=O)C2CCCN(S(=O)(=O)c3ccc4c(c3)CCCC(=O)N4)C2)c1 (stereo not given)	inactive: -3.57%
COc1ccccc1NC(=O)C1=C(C)Nc2nc(SC)nn2C1c1ccccc1Cl (stereo not given)	inactive: -3.3%
Cc1cccc(CN2CCC(CNC(=O)Cn3ncc4c([nH]c5ccc(C)cc54)c3=O)CC2)c1	inactive: 2.62%
CCOC(=O)c1cc(S(=O)(=O)NCc2ccc(Cl)cc2)[nH]n1	inactive: -0.746%
COc1ccccc1C(=O)N/C(=C\c1cn(S(=O)(=O)N(C)C)c2ccccc12)C(=O)NCCCn1ccnc1	inactive: 22.4%
Cc1ccc(-n2ncc(C(=O)NCc3ccco3)c2C2CCN(C(=O)OC(C)(C)C)CC2)cc1C	inactive: -22.2%
COc1cc(NC(=O)c2cc3cc4ccc(C)cc4nc3o2)cc(OC)c1OC	inactive: 4.43%
O=C(CSc1nc2ccccc2nc1Cc1ccc(Cl)cc1)N1CCN(c2ccccc2)CC1	inactive: 9.39%
Cc1c(C(=O)Nc2cc(F)ccc2F)sc2nc(-c3ccc(F)cc3)cn12	inactive: -7.18%
CCN(CC)S(=O)(=O)c1ccc(C(=O)NCCSc2c(-c3ccccc3)[nH]c3ccccc23)cc1	inactive: -20.6%
CCCCCCOc1ccc(C2C(=O)N(C3CCCCC3)CC(=O)N2C2CCCCC2)cc1 (stereo not given)	inactive: 4.3%
NC(=O)c1cc(S(=O)(=O)N2CCN(c3cccc(C(F)(F)F)c3)CC2)cs1	inactive: -1.66%
O=C(c1ccc2c(c1)N(Cc1ccc(F)cc1)C(=O)c1ccccc1S2(=O)=O)N1CCCCC1	inactive: 0.969%
OCc1cnc(SCc2ccccc2F)n1Cc1ccc(F)cc1	inactive: -13.8%
Cc1cc(C)cc(NC(=O)C(Cc2ccccc2)NS(=O)(=O)c2ccc3c(c2)CCC(=O)N3)c1 (stereo not given)	inactive: 8.58%
CCOc1ccccc1NC(=O)C(=O)Nc1ccc2nc3n(c(=O)c2c1)CCCCC3	inactive: 14.7%
Cc1cc(C)c(NC(=O)C2CCCN(S(=O)(=O)c3c(C)noc3C)C2)c(C)c1 (stereo not given)	inactive: -0.897%
Cc1cc(C)cc(NC(=O)Cc2noc3ccccc23)c1	inactive: -2.09%

SMILES	activity change, negative = cytotoxicity
O=C(c1ccccc1)N1c2nc(-c3ccco3)nn2C2(CCCCC2)[C@@H]2CCCC[C@@H]21	inactive: 1.18%
COc1cc(NC(=O)CSc2nc3nc(C)c(Cc4ccccc4Cl)c(C)n3n2)cc(OC)c1	inactive: -2.31%
Cc1ccc(Nc2ncnc3sc4c(c23)CCC(C)C4)cc1C (stereo not given)	inactive: -1.83%
Cc1ccc(CNC(=O)C(=O)NCC(c2ccc3c(c2)OCO3)N2CCOCC2)cc1 (stereo not given)	inactive: 9.92%
CCOC(=O)C1(C)C=C(Nc2cccc(C(=O)O)c2)C(=O)N1c1ccccc1 (stereo not given)	inactive: 1.95%
Cc1ccc2c(=O)cc(C(=O)Nc3c(C)n(C)n(-c4ccccc4)c3=O)oc2c1	inactive: -20.9%
COc1cc2nc(SCc3ccc(C)cc3)n3nc(CCn4nc(C)cc4C)nc3c2cc1OC	inactive: 8.29%
CC(C)Cn1c(-c2cccc(Br)c2)nc2ccccc21	inactive: -15.7%
COC(=O)C(CCSC)Nc1ncnc2onc(-c3ccc(F)cc3)c12 (stereo not given)	inactive: 3.9%
CCCOc1ccc(CNC(=O)C(NS(=O)(=O)c2cccs2)C(C)C)cc1 (stereo not given)	inactive: -1.52%
COc1cc(Cl)c(C)cc1NC(=O)c1cnc(N2CCCCC2)c2ccccc12	inactive: -25.6%
Cc1ccc(-n2cnnn2)cc1S(N)(=O)=O	inactive: -2.37%
CCc1cc2c(cc3c(=O)n(CC(=O)NCCc4ccc(OC)cc4OC)nc(CC)n32)s1	inactive: 5.19%
COC(=O)Cn1c(SCCOc2ccccc2OC)nc2ccccc21	inactive: 11.4%
Cc1cc2[nH]c(=O)c(=O)[nH]c2cc1S(=O)(=O)N1CCN(c2cccc(Cl)c2)CC1	inactive: 27.5%
COCCNC(=O)c1ccccc1NC(=O)c1nsc2ccccc12	inactive: -2.07%
CNC(=O)CN1C(=O)COc2ccc(S(=O)(=O)N3CCC(C)CC3)cc21	inactive: 7.58%
Cc1ccccc1Nc1c(-c2ccc(N3CCOCC3)cc2)nc2ccc(Br)cn12	inactive: 0.306%
CCSc1ncc(Cl)c(C(=O)Nc2cccc(Cl)c2)n1	inactive: -1.36%
Cc1ccc(NC(=O)c2ccc(NC(=O)CCS(=O)(=O)c3cccs3)cc2)cc1F	inactive: 17.1%
COc1cccc(Cn2cc(C(=O)c3ccc(Cl)cc3)c(=O)c3ccccc32)c1	inactive: -3.81%
COc1ccc(NC(=O)C2CCN(S(=O)(=O)c3c(C)noc3/C=C/c3cccs3)CC2)cc1Cl	inactive: -2.28%
Cc1nc2cccnc2n1C1CCN(C(=O)Nc2ccc(Cl)cc2)CC1	inactive: -11.3%
COC(=O)Cc1c(C)c2ccc3c(c2oc1=O)CN(Cc1ccccc1Cl)CO3	inactive: 8.45%

SMILES	activity change, negative = cytotoxicity
CCOc1ccc(-c2c(C)nn3c(C)c(C(=O)NCCc4ccc(C)cc4)cnc23)cc1OCC	inactive: 0.769%
CC1CCN(C(=O)CSc2nc(-c3ccc(F)cc3)cc(C(F)(F)F)n2)CC1	inactive: 26.5%
CCOC(=O)c1sc(NC(=O)c2c(-c3ccccc3)c(-c3ccccc3)nn(C)c2=O)nc1C	inactive: 1.02%
Cc1cc2c(cc1S(=O)(=O)Nc1cc(C(F)(F)F)cc(C(F)(F)F)c1)OCC(=O)N2	inactive: -18.6%
Cc1ccc(NC(=O)/C=C/c2ccccc2Cl)cc1Cl	inactive: 0.823%
COc1ccc(NC(=O)C2=C(C)Nc3nc(SCc4ccc(Cl)cc4)nn3C2c2cccc(OC)c2OC)cc1 (stereo not given)	inactive: -7.59%
O=C(Cn1c(=O)nc(-c2ccccc2)c2ccccc21)Nc1ccc(Cl)cc1F	inactive: 15.4%
CCCCOC(=O)c1ccc(NC(=O)c2sc3nc(C)cc(C)c3c2N)cc1	inactive: 10.1%
COc1ccc(N(C)C(=O)Cn2cc(S(=O)(=O)N3CCN(c4ccccc4F)CC3)c3ccccc3c2=O)c(OC)c1	inactive: -5.75%
Cc1cccc(-n2c(=O)c3ccccc3n(Cc3ccc(F)cc3)c2=O)c1	inactive: 19.9%
CCc1ccc(Nc2nc3ccccc3nc2NS(=O)(=O)c2ccccc2)cc1	inactive: 3.57%
Cc1ccc(-n2nc(C)c3c(C(F)(F)F)cc(-c4cccnc4)nc32)cc1Cl	inactive: -3.39%
COc1ccccc1C(=O)Nc1c(C(=O)NC(C)(C)C)oc2ccccc12	inactive: -5.78%
COc1ccc(NC2=C(c3ccc(C(F)(F)F)cc3)C(=O)c3ccccc32)cc1	inactive: -12.9%
COc1cccc(NC(=O)CN2C(=O)c3ccccc3Sc3ncccc32)c1	inactive: -1.32%
Cc1ccc(-c2nc(C)c(CCNC(=O)c3ccccc3Br)s2)cc1	inactive: -6.75%
CCOC(=O)c1ccc(NC(=O)c2cn3c4c(ccc(Cl)c4c2=O)OC(C)C3)cc1 (stereo not given)	inactive: 0.951%
COc1cc(OC)c(N(C)C(=O)Nc2cn(CC(C)C)c(=O)c3ccccc23)cc1Cl	inactive: 4.58%
CCCc1nn2c(=O)cc(COC(=O)CNC(=O)COc3ccc(C)cc3)nc2s1	inactive: 6.59%
CCN(c1cccc(C)c1)S(=O)(=O)c1ccc2[nH]cc(C(=O)NCCCOC)c(=O)c2c1	inactive: -9.07%
CC(=O)Nc1nonc1-c1nnc(SCC(=O)N(C)c2ccccc2)n1C	inactive: -16%
Clc1cccc(-n2ncc3c(N4CCCCC4)ncnc32)c1	inactive: 5.7%
O=C(Cn1cc(S(=O)(=O)Cc2cccc(Cl)c2)c2ccccc21)NCCc1ccccc1	inactive: -1.42%
Cc1ccc(NC(=O)/C(C#N)=C/c2ccc(C(C)C)cc2)cc1C	inactive: 0.618%

SMILES	activity change, negative = cytotoxicity
CCOC(=O)c1cnc2c(C)c(Cl)ccc2c1NCCc1ccccc1	inactive: 1.89%
COc1ccc(CNC(=O)C(=O)Nc2ccc(OC)cc2OC)cc1	inactive: -0.644%
CCC1CN(C(=O)N2CCC(C(=O)NCc3cccc(C)c3)CC2)c2ccccc2O1 (stereo not given)	inactive: -4.68%
CCOc1ccccc1N(CC)C(=O)c1cc2c(=O)[nH]c3ccc(C)cc3c2s1	inactive: 3.45%
COc1ccc(CNC(=O)c2c3c(nc4ccccc24)C(=O)N(C2CCCCC2)C3)c(OC)c1	inactive: 0.616%
COC(=O)c1scc(-c2ccc(C)cc2)c1S(=O)(=O)Nc1cc(OC)c(OC)c(OC)c1	inactive: 21%
O=C(Cn1c(=O)nc(-c2ccccc2F)c2cc(Cl)ccc21)N1CCN(c2ccccc2F)CC1	inactive: 4.76%
CCCCC(CC)CNC(=O)CN1C(=O)CSc2ccc(S(=O)(=O)N3CCOCC3)cc21 (stereo not given)	inactive: 10.8%
O=C(c1ccc2c(c1)N(Cc1ccc(F)cc1)C(=O)c1ccccc1S2=O)N1CCC(Cc2ccccc2)CC1 (stereo not given)	inactive: -9.82%
CSc1cccc(Nc2nc3c(S(=O)(=O)c4ccccc4)nnn3c3ccc(Cl)cc23)c1	inactive: -3.96%
O=C(Cn1ncc2ccc(Cl)cc21)NCc1ccc(F)cc1	inactive: 0.29%
Cc1ccc(C)c(NC(=O)CSc2ncc(S(=O)(=O)c3ccc(C)c(Cl)c3)c(=O)[nH]2)c1	inactive: 1.77%
Cc1c(Cl)cccc1NC(=O)Nc1nnc(N2CCCCCC2)s1	inactive: 4.91%
Cc1ccc(C(=O)Nc2cccc(C(=O)O)c2)cc1S(=O)(=O)N1CCCC1	inactive: 8.1%
COc1ccc(Cn2c(SCc3ccc(C(=O)NC(C)C)cc3)nc3cccnc32)cc1	inactive: 0.926%
COc1ccccc1NC(=O)c1cccc(S(=O)(=O)N2CCCCCC2)c1	inactive: 15.7%
CC(C)(C)C1CCc2c(sc(NC(=O)Cn3nnc(-c4ccccc4F)n3)c2C#N)C1 (stereo not given)	inactive: 4.28%
O=C(Cn1c(=O)c2cccn2c2ccccc21)Nc1cc(F)ccc1F	inactive: 3.66%
CCOc1ccc(N(C(=O)Cn2nnc3ccccc32)C(C(=O)NCc2ccccc2)c2ccc(OC)cc2)cc1 (stereo not given)	inactive: 14.9%
CCOC(=O)c1cc(-c2ccccc2)n(-c2cccc(C(=O)Nc3ccc(OC)cc3)c2)c1C	inactive: 6.63%
CCc1ccc(-c2nn(CC(=O)Nc3ccccc3)c3c2cnc2ccc(F)cc23)cc1	inactive: 5.01%
Cc1ccc(CCNC(=O)Cn2nc(-c3ccc(C)cc3)ccc2=O)cc1	inactive: 0.776%
CCN(CC)CCNC(=O)c1cn(CC)c2ccc(S(=O)(=O)N3CCOCC3)cc2c1=O	inactive: 17.4%
